From PubChem BioAssay AID1159614 (National Center for Advancing Translational Sciences (NCATS), 2016)
In all, about 45,000 compounds went through this assay and about 65 (0.1%) were called active. Calls come from the whole dose curve; as a rule, active = well fitted activation curve with a large enough effect; inconclusive = small, poorly fitted or top-dose-only effect; inactive = no such curve, though single readings can be large or run the other way. This is one part of the list.

Each molecule was assayed against Galactocerebrosidase (Homo sapiens) (UniProt P54803) (assay: A Novel Cell-Based Assay to Identify Small Molecules for B -Galactocerebrosidase). Details: 145M-Twi-hGALC-G270D cells (Twitcher mouse brain line with human GALC G270D), HMU-beta-Gal fluorescence, 48 h; series mostly up to 57.5 µM; activation: at the top concentration.
Text: Lysosomal storage diseases (LSDs) are caused by genetic mutations in genes encoding proteins important for normal lysosomal function. Globoid cell leukodystrophy (GLD), mostly known as Krabbe disease, is a prototype of the neurological LSDs caused by deficiency of beta-galactocerebrosidase (GALC). In brain specimens of GLD patients, psychosine levels are substantially elevated. At elevated concentrations, psychosine becomes cytotoxic to neuronal cells, particularly to oligodendrocytes (OLG), neural cells responsible for myelin formation. Therefore, the biochemical disturbances in GLD are manifested by different degrees of brain demyelination resulting in a broad spectrum of neurological manifestations. Most of the FDA-approved therapies are based on enzyme replacement therapeutic (ERT) agents, which treat non-neurological symptoms of Gaucher disease, Fabry disease, few mucopolysaccharidoses and Pompe disease. Unfortunately, in GLD, a primarily neurological LSD, ERT agents, as large molecular weight molecules unable to cross the blood-brain barrier, which makes this an inefficacious therapeutic approach. In GLD, increasing the residual GALC activity just above the critical threshold (~10% of wild type enzymatic activity), the cytotoxic levels of psychosine will be reduced, avoiding the OLGs apoptosis and the subsequent demyelination process. This will translate in disease stabilization and amelioration of GLD patient symptoms.
A cell-based assay in 1,536-well plate format was developed to implement a quantitative high-throughput screening (qHTS) assay using GLD-disease relevant cells to identify small molecules that produce enhancements of the residual enzymatic activity levels of mutants GALC found and prevalent in GLD patients. Compounds that are active may therefore have some therapeutic application for GLD. After the treatment of live cells for a determined period, using a fluorescent GALC specific substrate, the mutant residual GALC activity is measured. This cell-based qTHS assay was used to screen part of the MLPCN library for small molecule able to increase the mutant GALC enzymatic activity. In this assay, increased fluorescent signal corresponds to enhanced levels of mutant GALC residual enzymatic activity. Activation is the desired outcome for this assay.
NIH Chemical Genomics Center [NCGC]
NIH Molecular Libraries Probe Centers Network [MLPCN]
Assay Submitter (PI): Gustavo Maegawa MD,PhD, University of Florida, Gainesville, FL
2)#Two cell lines were established for the assay: 145M-Twi-hGALC-G270D (brain-derived Twitcher cell line stably expressing human GALC-G270D) and 145M-Twi-hGALC-WT (same 145M-Twi stably expressing human GALC wild type). The Twitcher is the murine C57B/6 model for GLD with naturally occurring homozygous nonsense GALC mutation. The 145M-Twi cell line was established at Maegawa lab (Ribbens J et al 2014).
a.#Media: DMEM/F12 (1:1) with 10% fetal bovine-serum (FBS) with penicillin/streptomycin (PS-1X - 100 I.U./mL of penicillin+100 ug/mL of streptomycin).
b.#The 6-Hexadecanoylamino-4-methylumbelliferyl-b-D-galactoside (HMU-B-gal) substrate was prepared as per Wiederschain et al 1992. Using 20-mL borosilicate tubes, 2.20 mg of HMU-b-Gal was added in each tube to prepare substrate-film with a final air-nitrogen stream evaporation to remove all diluent solvents.
c.#The HMUb-Gal substrate buffer consists of 0.2 M Na2HPO4 (sodium phosphate dibasic)/ 0.1 M Citric Acid with the pH adjusted to 5.2 using HCl. Sodium Azide at 0.02% and Sodium Taurocholate (NaTC) at 1 mg/mL were added to this substrate buffer.
d.#The HMU-b-Gal stopping buffer consist of 0.5 M NaHCO3 (sodium bicarbonate) /0.5 M Na2CO3 (sodium carbonate). […] Triton X-100 at 0.25% was added.
4)#Preparation of HMU-b-Gal substrate tubes
Adding 18.6 mL of the HMUb-Gal substrate buffer to each 20-mL tube (2.20 mg of HMU-b-Gal) will reach a concentration of 0.2 mM. Vortex well the tube until the solution is fully homogenized (clear cloudy solution). […]
Note: 0% is about no effect; nearly all actives have a fitted effect of over 65% in size.

Chain of UniProt P54803 (P54803 whole entry, looked up): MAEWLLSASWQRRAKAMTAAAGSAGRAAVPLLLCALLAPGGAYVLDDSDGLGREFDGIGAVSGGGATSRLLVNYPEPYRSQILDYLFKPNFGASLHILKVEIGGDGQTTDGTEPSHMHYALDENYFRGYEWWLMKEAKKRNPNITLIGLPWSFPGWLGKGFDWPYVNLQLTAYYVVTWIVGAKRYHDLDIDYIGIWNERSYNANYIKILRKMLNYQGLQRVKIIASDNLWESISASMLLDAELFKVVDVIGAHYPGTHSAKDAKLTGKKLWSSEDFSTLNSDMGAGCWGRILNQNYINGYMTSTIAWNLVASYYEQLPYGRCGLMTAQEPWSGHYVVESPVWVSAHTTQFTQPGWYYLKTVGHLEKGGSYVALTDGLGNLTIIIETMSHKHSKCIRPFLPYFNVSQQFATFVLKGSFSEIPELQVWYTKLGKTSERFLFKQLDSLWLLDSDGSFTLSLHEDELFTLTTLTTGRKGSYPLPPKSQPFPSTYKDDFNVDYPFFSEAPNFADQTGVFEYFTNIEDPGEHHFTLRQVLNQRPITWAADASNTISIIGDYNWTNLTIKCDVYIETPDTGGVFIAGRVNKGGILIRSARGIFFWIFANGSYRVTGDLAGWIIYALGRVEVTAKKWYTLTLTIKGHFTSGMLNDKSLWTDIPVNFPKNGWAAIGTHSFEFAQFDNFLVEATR

SMILES	activation
O=C(Nc1ccc(Cl)c(C(F)(F)F)c1)C(Cc1ccccc1)NS(=O)(=O)c1cccc2nsnc12 (stereo not given)	inactive: -9.63%
Cc1ccc(C)c(NC(=O)c2ccc3c(c2)CCN3S(=O)(=O)c2ccccc2)c1	inactive: -25.4%
COc1ccc2oc(=O)c(-c3nc(-c4ccc(C)c(C)c4)cs3)cc2c1	inactive: -4.59%
CCC(Sc1nc2ncccc2o1)C(=O)Nc1cccc(C)c1 (stereo not given)	inactive: 9.05%
O=C(CSc1nccn1Cc1ccc(Cl)cc1)Nc1ccc2c(c1)OCO2	inactive: -19.5%
COc1ccc(NC(=O)C2CCCN(S(=O)(=O)c3c(C)[nH]c(=O)[nH]c3=O)C2)cc1Cl (stereo not given)	inactive: -7.15%
COc1cccc(-n2cc(C(=O)NCc3ccc(C)cc3)c3ccccc3c2=O)c1	inactive: -13.8%
O=C(CN1N=C(c2ccccc2)CCC1=O)NCc1ccc(F)cc1Cl	inactive: -10.4%
C[N+]1(CC2COC(c3ccccc3)(c3ccccc3)O2)CCCCC1 (stereo not given)	inactive: -16.6% [at 23.8 µM]
C[C@H]1NCc2cc(-c3ccc4c(=O)c(C(=O)O)cn(C5CC5)c4c3OC(F)F)ccc21	inactive: -3.82% [at 23.8 µM]
CCc1ccc(C2c3c(-c4ccccc4)n[nH]c3C(=O)N2c2ccc(C(=O)O)cc2)cc1 (stereo not given)	inactive: -0.432%
COc1ccc(-c2nc(CNC(=O)NC3CCCCC3)c(C)o2)c(OC)c1	inactive: -8.99%
Cc1ccc2c(c1)C(C)(c1ccccc1)CC(C)(C)N2C(=O)c1ccc(F)cc1 (stereo not given)	inactive: -32.8%
CC(=O)c1ccc(NC(=O)Cn2c(=O)oc3cc(S(=O)(=O)N4CCCCC4)ccc32)cc1	inactive: -16.8%
O=C1CCCc2[nH]c(=O)c(-c3nc(-c4cccc([N+](=O)[O-])c4)cs3)cc21	inactive: -6.73%
CC1=C(c2ccc(C)cc2)S(=O)(=O)N(Cc2ccc(C(=O)NCc3ccccc3F)cc2)C1=O	inactive: -24.6%
CCCCCCc1cc2cc(-c3cn4c(n3)sc3cc(OC)ccc34)c(=O)oc2cc1O	inactive: -7.2%
O=S(=O)(NCCc1cn2ccsc2n1)c1ccc(Cl)cc1	inactive: 5.03%
O=C(CN1C(=O)COc2ccc(S(=O)(=O)N3CCOCC3)cc21)N1CCN(c2ccc(Cl)cc2)CC1	inactive: -8.27%
O=C(CCCn1c(=O)[nH]c2ccccc2c1=O)N1CCN(c2ccccc2)CC1	inactive: -6.5%

SMILES	activation
CCOC(=O)c1cc2c(=O)n3ccccc3nc2n(Cc2ccco2)c1=NC(=O)c1ccc(F)cc1	inactive: -12.7%
Cc1cc(OCC(=O)Nc2nc3c(s2)CCCC3)cc(C)c1Cl	inactive: -7.37%
CCOC(=O)c1ccccc1NC(=O)COc1cc(=O)n(CC)c2ccccc12	inactive: -10.9%
O=C(Nc1cccc(Cl)c1)c1cc(S(=O)(=O)N2CCC3(CC2)OCCO3)ccc1F	inactive: -13.7%
Cc1ccccc1C(=O)n1nc(-c2cccnc2)nc1NCc1ccc(F)cc1	inactive: -35.2%
CCN(CCCNC(=O)Cn1ncc2c3ccccc3n(C)c2c1=O)c1cccc(C)c1	inactive: -14.2%
COc1cc(OC)c(NC(=O)Cn2cnc3c(nc4n3CCCCC4)c2=O)cc1Cl	inactive: -22.5%
COc1ccc(NC(=O)CC(C)S(=O)(=O)c2ccc3c(c2)NC(=O)CO3)cc1OC (stereo not given)	inactive: -7.54%
O=C(CN1CCN(C2CCCCC2)C(=O)C1=O)Nc1ccc(Cl)cc1	inactive: -1.11%
O=C(CCC1N=C2c3ccccc3N=C(SCc3ccc(Cl)cc3)N2C1=O)NC1CCCCC1 (stereo not given)	inactive: -18.2%
CCOc1ccccc1NC(=O)Cn1c(=O)n(Cc2ccccc2)c(=O)c2c3c(sc21)CN(C(C)=O)CC3	inactive: -8.45%
Cc1cccc(C)c1NC(=O)Cn1c(=O)cc(C)c2c(C)nn(-c3cccc(Cl)c3C)c21	inactive: -13.5%
COc1ccc(Cl)cc1NC(=O)c1sc2nc3c(cc2c1N)CN(C)CC3	inactive: -10%
Cc1ccc(-n2ncc3c(N4CCCCC4)ncnc32)cc1	inactive: -5.29%
COc1ccc(OC)c(NC(=O)Cn2c(CCC(=O)O)ccc2-c2ccccc2)c1	inactive: -13.7%
CCC(=O)Nc1ccccc1C(=O)OCc1cc(=O)n2cc(C)sc2n1	inactive: -9.77%
CC(C)CCN1C(=O)c2ccccc2CC1(C)C(=O)NC1CCCCC1 (stereo not given)	inactive: -9.61%
O=C(Nc1c(C(=O)N2CCN(c3ccccc3)CC2)oc2ccccc12)c1ccccc1F	inactive: -13.2%
Cc1cccc(N(C)C(=O)c2cc3c(=O)oc4ccc(C)cc4c3s2)c1	inactive: -0.131%
CCOc1ccc(-n2nc3ccc(NC(=O)c4ccc(C)cc4C)cc3n2)cc1	inactive: -14.6%

SMILES	activation
Cc1ccc(CCNC(=O)c2cc3cc(S(=O)(=O)N4CCCCC4)ccc3n2C)cc1	inactive: -9.74%
CC1CC(=O)N(CC(=O)Nc2ccc(OC(F)(F)F)cc2)c2ccccc2S1 (stereo not given)	inactive: 1.54%
CCCN1CCN(C(=O)Cn2ncc3c4ccccc4n(Cc4cccc(Cl)c4)c3c2=O)CC1	inactive: -8.83%
CCOC(=O)c1ccc(Nc2nc3ccccc3n3c(C)nnc23)cc1	inactive: -12.5%
CC1=Nc2cc(C(=O)NC3CCCC3)ccc2Sc2ccc(Cl)cc21	inactive: -15%
CCN1CCN(CCCNC(=O)c2cnn(-c3ccc(OC)cc3)c2C2CCN(C(=O)OC(C)(C)C)CC2)CC1	inactive: -7.48%
CCN1CCOC(=O)C1CC(=O)Nc1cc(Cl)ccc1C (stereo not given)	inactive: -22.8%
COC(=O)c1ccc(C(=O)OC)c(NC(=O)c2cnn3c(C(F)F)cc(-c4ccc(C)cc4)nc23)c1	inactive: -9.56%
COc1ccc(Cl)cc1C(=O)NCCc1ccc(S(=O)(=O)NC(=O)NC2CCCCC2)cc1	inactive: -10.4%
COC(=O)c1scc(-c2ccc(C)cc2)c1S(=O)(=O)N1CCN(c2ccccc2F)CC1	inactive: -6.74%
Cc1cccc(N2CCN(c3ncnc4c3cnn4-c3ccc(Cl)cc3)CC2C)c1 (stereo not given)	inactive: -22.3%
O=C(Cn1c(-c2cccs2)cc2cc(F)ccc21)N1CCCCC1	inactive: -5.52%
COc1cccc(C(=O)Nc2c3c(nn2-c2ccc(C)cc2C)CS(=O)(=O)C3)c1OC	inactive: -18.5%
COc1ccc(N(C)S(=O)(=O)c2ccc3c(c2)n(C)c(=O)c(=O)n3C)cc1	inactive: -2.48%
CC(C)CN(CC(C)C)S(=O)(=O)c1ccc(C(=O)Nc2sc3c(c2C(N)=O)CCN(C(C)C)C3)cc1	inactive: -25.6%
CCOCCc1nn2c(=O)cc(COC(=O)c3ccccc3NC(=O)CC(C)C)nc2s1	inactive: -6.81%
CCOc1ccc(-c2noc(CSc3nnc(Cc4ccccc4)n3-c3ccc(F)cc3)n2)cc1	inactive: -16.4%
CC(=O)N1CCC(N(Cc2ccco2)C(=O)Nc2ccc(Br)cc2F)CC1	inactive: -9%
O=C(CC1N=C2c3ccccc3N=C(SCc3ccccc3Cl)N2C1=O)NCc1cccs1 (stereo not given)	inactive: -20.1%
COc1ccc(NC(=O)C(=O)NCC(c2cccnc2)N2CCc3ccccc3C2)cc1 (stereo not given)	inactive: -14.8%
